In the RNAGym collection of RNA variant scans (doi:10.1073/pnas.2313332121):
Variants at the background level are over-represented here.

B1: TPR 5TU (parent)
chain: GGAUCUUCUCGAUCUAACAAAAAAGACAAAUCUGCCACAAAGCUUGAGAGCAUCUUCGGAUGCAGAGGCGGCAGCCUUCGGUGGCGCGAUAGCGCCAACGUUCUCAACUAUGACACGCAAAACGCGUGCUCCGUUGAAUGGAGUUUAUCAUG

Variants of: B1
Assay: polymerase ribozyme fitness, log enrichment relative to wild type (log ratio); higher = more active; in vitro selection for triplet polymerase activity
In short: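 PCR was used to build mutant libraries for each subunit of a heterodimeric triplet polymerase ribozyme, which were then transcribed. A single in vitro selection round, in triplicate, used a frozen incubation at −7 °C and recovered extended constructs by gel excision, streptavidin beads and RT-PCR. Fitness is the logarithm of genotype enrichment relative to wild-type enrichment, averaged over replicates with inverse-variance weights. The logarithm is base 2, and after Illumina sequencing only genotypes with ≥10 input reads and ≥1 read per output were kept.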

Polymerase ribozyme fitness (log ratio), -2.25:
A16U C87U C116U

Polymerase ribozyme fitness (log ratio), -3.4:
A16G G128U

Polymerase ribozyme fitness (log ratio), -1.7:
A16G U56A

Polymerase ribozyme fitness (log ratio), ≤ -4.2:
A16G A17C A23G A24G A113C
A16U U61A C93U G140A G143U U148G
A16U U77C C87G
A17C A40C U77A G94A A97C C99U A113G G117U U139G U144G
A16G A40G U45A G50C C79U U82G C93U U102G
A16G U55A C116G C118A U151G
A16C C27U U45G G83A A106C G143A
A16C G59C G94C G126A U139A
A17C A29G G34A A41G U77C C93A U101G
A16C G25C G42A G84U
A16G G58A U61A C93U C103A A110G
A17C C18A A22C U56G U111C C123G U139C
A16C A22C C38A A40U C93G A119G
A16U U53C C93U G112U G152U
A16U U55G C93G
A16G G67C G84U C116G U135C U139G
A16U G42C C93G A138G G140U
A16U A19C C43G A91U
A16G U45G A49C C87U C93A
A16U C43U A52C C85G C87U G92A A97U G124A
A16C C36U G46A A60U U127G
A16C A28C G50A C54U A73U C87G C96G C114U
A16C C18U A21U C27A G50U G86U
A16G A26G C69G A73G C93A C105G
A16U G25C G34U C93U C105U G124U
A16G C43A G80C G88U A89G G92U C125G
A16C G92C C105A A120U
A16U A49C G50A G94A
A16G U55A A89C U109C
A16U A28U C69A U78C G88C C132U G140C
A16G A28C C36A U44A G48C A49C C76G U77C A91U C103G
A16U A41G A47C G58C A122G C125G A137G
A16U A73C A142C
A16C C32A U61A U102G
A17C C18G A26U A41C U45G A49U U55A G62A G92U C108U C118U
A16U A22G C72U C79U C87A U104G
A17C A26U A37U G46C U56A G67A C93G U111C
A17C A23C U31C C54A G84A A97G
A16G G50C
A16G U53A C87U G92U G94U C96A
A17C A40G G58A G86A G88C U102C
A16C A91C C103A
A16C C72G C99A C103G G117C
A16C C32A C99A A120C U134C U151G
A16C C76A G83A A91U A106C C108A U130A
A16C U55A G58C G83C C85A
A16U C54A G94U C105A G136U
A16C A29U U44A A110G G136A
A16G U53A G94A G133C A137G A142U G152C
A16C A91U C131G
A16C A29G G50A C54U C93A C108U C116A U130G C132G G141C
A16C C18G U45G U61G
A16U C27G A89G G92U C149G
A16C G83C U146G U148C C149A
A16U A39U C43U A89G G92C A97G C108G U139G C149A
A16U A24U A47C A52U C96A
A16U U55A C105G G133U A147G
A16C G59A U82A A147C C149A
A16C C27A U53A U82C C85U A110U C114A A122C
A16U A17G C85U A115U
A16U A41U G59A C116G C129U A150G
A16U G50C U134G
A16C C57A A66U U77C C99G
A16U A39C G71A C75U G94C G140A
A16G A49U G62A G92A C96A
A16U G25C C72G C76G C96U A107U A115G C129U
A16G G42A G50C A52U C57A G70A
A17C C18U A28U A30G C43U G70A G92C C108U
A16U U45A U56A C63G G86U A89C C93U U104C C114A C118G A122U
A16U C35G G42A U78C G92A U102G
A16U A40C C51A A52G C54U C76A C87G A89U A91U
A16U A40C C51A A52U G74A C76G C95U A107G
A16U A37C A40U U45A U61A G80A A138U A150C
A16G C32G C75A U78G
A16G C32A C38G U56A A60C C87A C123U A150C
A16C A24G C103A U134G
A16C G46A G84A U90C A122G
A16U A28G U31G C38U C96G G136U U145G

Polymerase ribozyme fitness (log ratio), -3.41:
A16C U82A C95G G141A

Polymerase ribozyme fitness (log ratio), -2.77:
A16C U31A U104G A142C
